Reference: PubChem BioAssay AID485294 (National Center for Advancing Translational Sciences (NCATS), 2010)
Hit rate of the full screen: of about 370,000 compounds, about 150 (0.041%) were called active. Inconclusive means that the source gave no clear call. Such entries were picked first, then a sample of the others. Calls follow the shape of the dose curve; as a rule, active = well fitted inhibition curve with a large enough effect; inconclusive = small, poorly fitted or top-dose-only effect; inactive = flat fitted curve, though single readings scatter. Potencies of inconclusive entries are left out as doubtful fits.

target: Beta-lactamase (Escherichia coli (strain K12)) (UniProt P00811); test: qHTS Inhibitors of AmpC Beta-Lactamase (assay with detergent); settings: AmpC hydrolysis of nitrocefin, absorbance 480 nm, 0.01% Triton; series mostly up to 114 µM; also: nearly all actives have a fitted effect of over 25% in size
UniProt P00811, sequence (P00811 whole entry, looked up): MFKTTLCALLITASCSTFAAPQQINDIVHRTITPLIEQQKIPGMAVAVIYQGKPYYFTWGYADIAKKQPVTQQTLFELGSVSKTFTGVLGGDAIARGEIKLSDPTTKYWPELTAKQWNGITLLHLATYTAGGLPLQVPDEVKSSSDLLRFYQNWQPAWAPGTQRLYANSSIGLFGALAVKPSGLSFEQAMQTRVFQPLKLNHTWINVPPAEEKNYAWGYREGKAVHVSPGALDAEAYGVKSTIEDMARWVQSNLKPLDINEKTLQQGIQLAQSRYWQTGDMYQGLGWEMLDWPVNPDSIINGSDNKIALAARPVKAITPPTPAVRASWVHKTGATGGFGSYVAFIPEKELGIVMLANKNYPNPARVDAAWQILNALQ
In short: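 20 mM phosphate pH 7.0 + 0.01% (detergent screen) or 0.0001% Triton X-100; 5.3 nM AmpC reagent; cpd preinc 15 min RT; nitrocefin (800 uM stock) to start; A480 q20 s × 4 min; Activity was normalised to no-enzyme and no-compound control wells.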
Potency is read from the fitted curve at half-maximal effect; tags tell the direction and shape of the fitted curve.

SMILES	Potency
c1csc(C(c2nnnn2C2CCCCC2)N2CCN(c3nc4ccccc4s3)CC2)c1 (stereo not drawn)	inconclusive [inhibitor, partial curve]
COCCn1nnnc1C(c1ccccc1OC)N1CCN(c2ccccc2)CC1 (stereo not drawn)	inconclusive [inhibitor, partial curve, poor fit]
COC(=O)c1ccccc1-c1ccc(/C=N/NC(N)=O)o1	inactive
COc1cc(NC(=O)CSc2nc3ccccc3cc2Cc2ccccc2)cc(OC)c1	inactive
CCOc1ccc(NC(=O)C2CCCN(S(C)(=O)=O)C2)cc1 (stereo not drawn)	inconclusive [inhibitor, partial curve, poor fit]
CCN(CC)S(=O)(=O)c1ccc(-n2cnc3cc(C)c(C)cc32)nc1	inconclusive [inhibitor, full curve, poor fit]
Cc1ccc(-c2cn(-c3ccccc3)c3[n+]2CCCS3)cc1	inconclusive [inhibitor, full curve, poor fit]
O=C(CN1CCCC1)Nc1ccc(-c2nc3cc(NC(=O)CN4CCCC4)ccc3o2)cc1	inactive
Cc1occc1C(=O)N/N=C/c1ccc(N(C)C)cc1	inactive
Cc1sc2ncn(CC(=O)N3CCOCC3)c(=O)c2c1-c1ccccc1	inconclusive [inhibitor, full curve, poor fit]
O=C(C(Cc1ccccc1)n1cccc1)N1CCN(C2CCCCC2)CC1 (stereo not drawn)	inconclusive [inhibitor, partial curve]
CN1C(=S)N(c2cccnc2)C(=O)/C1=C\c1ccc(N(C)C)cc1	inconclusive [inhibitor, full curve, poor fit]
CCN(CCO)C1CC(=O)N(c2ccccc2C)C1=O (stereo not drawn)	inconclusive [inhibitor, single point]
Cc1ccnc(NC(=O)C(Cc2ccccc2)NC(=O)c2ccccc2)c1 (stereo not drawn)	inconclusive [inhibitor, full curve, poor fit]
COc1ccc(CCNC(=O)C(=O)NCC(c2cccs2)S(=O)(=O)c2ccc(F)cc2)cc1 (stereo not drawn)	inactive
COc1ccc(NC(=O)CN2CCC(n3c(C)nc4cc(F)ccc43)CC2)c(OC)c1	inactive
O=c1[nH]c2ccc(Br)cc2c(-c2ccccc2)c1N1CCOCC1	inconclusive [inhibitor, full curve]
CSc1ccccc1NC(=O)CN(C)Cc1ccc(Br)cc1	inconclusive [inhibitor, full curve, poor fit]
CN(C)c1ccc(CNCC2CCCO2)cc1 (stereo not drawn)	inconclusive [inhibitor, full curve]
CN(C)CCOC(=O)CCc1ccccc1	inconclusive [inhibitor, full curve, poor fit]
Cc1cc(C)cc(N(C(C)C(=O)NC2CCCC2)S(C)(=O)=O)c1 (stereo not drawn)	inconclusive [inhibitor, full curve]
O=C1/C(=C/c2ccc(F)cc2)CCC1C1CCCC1 (stereo not drawn)	inconclusive [inhibitor, partial curve]
Cc1cc(Cl)cc(C)c1OCC(=O)O	inconclusive [inhibitor, partial curve, poor fit]

SMILES	Potency
COc1ccc(CCNC(=O)c2cc(=O)c3cc(C)c(C)cc3o2)cc1OC	inactive
C#CC(=O)N(c1ccc(OC)cc1OC)C(C(=O)NC1CCCC1)c1cccs1 (stereo not drawn)	inactive
COc1c(F)c(F)c(C(=O)Nc2ccc(N3CCN(C(C)=O)CC3)c(Cl)c2)c(F)c1F	inactive
CCOc1ccc(C(=S)N2CCCC2)cc1	inconclusive [inhibitor, full curve, poor fit]
Cc1cc(=O)oc2c(C)c(OC(C)C(=O)Nc3ccc(N4CCC(C)CC4)cc3)ccc12 (stereo not drawn)	inactive
Cc1cc(NC(=O)CSCC(=O)Nc2ccccc2N2CCCCC2)no1	inactive
CCOC(=O)C1CCCN(c2c(NCCc3ccc(S(N)(=O)=O)cc3)c(=O)c2=O)C1 (stereo not drawn)	inconclusive [inhibitor, full curve]
CC1=C(C)C(=O)N(CCC(=O)O)C1=O	inconclusive [inhibitor, full curve, poor fit]
CN(C)/C=N/c1nc2nccc(-c3ccccn3)n2n1	inconclusive [inhibitor, full curve, poor fit]
O=C(OCC(=O)N1CCc2ccccc21)c1c2c(nc3ccccc13)CCCCC2	inconclusive [inhibitor, single point]
N#Cc1cnn(-c2ccccc2)c1NC(=O)c1ccccc1F	inconclusive [inhibitor, full curve]
COCCN(C(=O)COc1ccc(Cl)cc1)c1nnc(-c2cccnc2)s1	inactive
CCC(C)N(C(=O)CSc1nc(C)nc2ccccc12)C1CCS(=O)(=O)C1 (stereo not drawn)	inactive
C=CCNC(=S)NNC(=O)c1csc(CC)c1	inactive
COc1ccc(NC(=O)C2CCCN2c2ccc(OC)c(OC)c2)cc1OC (stereo not drawn)	inconclusive [inhibitor, full curve]
COc1ccc2c(=O)c(-c3ccccc3)coc2c1	inconclusive [inhibitor, full curve, poor fit]
Cc1cc2c(cc3c(SCc4cccc(F)c4)nnc(C)n32)o1	inactive
Cc1ccc(NC(=O)C2CCN(S(=O)(=O)c3ccc4c(c3)NC(=O)C(C)S4)CC2)c(C)c1 (stereo not drawn)	inactive
CC(C)c1nnc(NC(=O)CCC(=O)NC2CC2)s1	inconclusive [inhibitor, single point]
CC(=O)c1ccc(NC(=O)CCCN2C(=O)/C(=C/C(C)=C/c3ccccc3)SC2=S)cc1	inconclusive [inhibitor, full curve, poor fit]
CCC1=C(OC(=O)N(CC)CC)N2C(=O)OC(=NCc3ccccc3)[C@]2(C)[C@H]2C1=CC[C@H]1C(=O)N(CC(=O)OC)C(=O)[C@H]12	inactive
COc1ccc(C(CNC(=O)Cc2ccc(Cl)cc2)N2CCOCC2)cc1 (stereo not drawn)	inactive
CCOc1ccc(OCC)c(NC(=O)c2ccc(CNc3c(N4CCOCC4)c(=O)c3=O)cc2)c1	inconclusive [inhibitor, full curve, poor fit]

SMILES	Potency
CCOC(=O)C1=C(C)N(c2ccc(C)cc2)C(=O)/C1=C\c1ccc(O)c(OC)c1	inactive
O=C(NCc1ccncc1)c1cc(S(=O)(=O)N2CCOCC2)c(Cl)cc1Cl	inconclusive [inhibitor, partial curve]
CCOC(=O)C1=C(c2ccccc2)NC(SCC(=O)NC2CCCCC2)=C(C#N)C1c1ccco1 (stereo not drawn)	inconclusive [inhibitor, full curve, poor fit]
CCc1ccc2oc(-c3ccc(OC)cc3)cc(=Nc3cccc(C(=O)O)c3)c2c1	inactive
Cc1ccc(C2c3c(oc4ccc(Cl)cc4c3=O)C(=O)N2CCCN2CCOCC2)o1 (stereo not drawn)	inconclusive [inhibitor, full curve, poor fit]
CC(C(=O)O)C(=O)O	inconclusive [inhibitor, full curve, poor fit]
NC(=O)CC(NC(=O)c1cccc(Br)c1)c1ccc(N2CCC(Br)CC2)c([N+](=O)[O-])c1 (stereo not drawn)	inconclusive [inhibitor, partial curve]
COC(=O)CCC(=O)Nc1sc2c(c1C#N)CCCC2	inconclusive [inhibitor, single point]
CCN(Cc1ccccc1)S(=O)(=O)c1ccc(S(=O)(=O)N2CCN(CCC#N)CC2)cc1	inconclusive [inhibitor, full curve, poor fit]
O=C(Nc1ccc(Br)cc1)N1CCCCCC1	inconclusive [inhibitor, full curve]
CCc1ccccc1NC(=O)CSc1nc2ncccc2o1	inactive
Cc1ccc(-c2csc(NC(=O)C3=COCCO3)n2)cc1	inconclusive [inhibitor, partial curve, poor fit]
O=C(NC(c1ccc(Cl)cc1)P(=O)(Oc1ccccc1)Oc1ccccc1)OCc1ccccc1 (stereo not drawn)	inconclusive [inhibitor, partial curve, poor fit]
CCCN(CC(=O)Nc1ccccc1C)C(=O)c1ccc(Cl)c(S(=O)(=O)N2CCCC2)c1	inconclusive [inhibitor, full curve, poor fit]
CCc1cc2c3c(c1)C1(C(=O)N3C(C)(C)CC2C)C(C#N)=C(N)N2C(=C1C#N)Nc1ccccc12 (stereo not drawn)	inconclusive [inhibitor, full curve, poor fit]
OCC(CO)(CO)N=Cc1cc(Br)ccc1O	inconclusive [inhibitor, partial curve, poor fit]
Cc1ccc(C(=O)NC(=S)Nc2ccc(S(=O)(=O)N3CCN(C)CC3)cc2)cc1	inconclusive [inhibitor, partial curve, poor fit]
Cc1ccc(Cl)cc1N1CCN(C(=O)c2ccc(CS(=O)(=O)c3ccc(Br)cc3)o2)CC1	inactive
CC(=O)NC(=S)Nc1ccccc1F	inconclusive [inhibitor, full curve, poor fit]
COc1ccc(C(=O)NCc2ccncc2)cc1OC	inconclusive [inhibitor, single point]
Cc1ccc(C(=O)Nc2nc(=O)n(C(=O)c3ccccc3Cl)s2)cc1	inactive
CCn1ccnc1CN1CCCCC1C(=O)Nc1ccc(Oc2cccnc2)cc1 (stereo not drawn)	inconclusive [inhibitor, full curve]
